Laboratory results as given in PubChem BioAssay AID504339 (National Center for Advancing Translational Sciences (NCATS), 2011).
Hit rate of the full screen: of about 390,000 compounds, about 17,000 (4.4%) were called active. The shares of active, inactive and inconclusive entries below differ from those in the screen. The call rests on the fitted dose curve; in most records, active means well fitted inhibition curve with a large enough effect; inconclusive means small, poorly fitted or top-dose-only effect; inactive means no such curve, though single readings can be large or run the other way. Where the call is inconclusive, the potency comes from a doubtful curve fit.

biological target: Lysine-specific demethylase 4A (Homo sapiens) (UniProt O75164); experiment: qHTS Assay for Inhibitors of JMJD2A-Tudor Domain; conditions: AlphaScreen JMJD2A-Tudor / H3K4me3 peptide binding; activity change, negative = inhibition: at 114 µM (top of the series); further: nearly all actives have a fitted effect of over 50% in size
Sequence of UniProt O75164 (O75164 whole entry, looked up, the tested form may be a part): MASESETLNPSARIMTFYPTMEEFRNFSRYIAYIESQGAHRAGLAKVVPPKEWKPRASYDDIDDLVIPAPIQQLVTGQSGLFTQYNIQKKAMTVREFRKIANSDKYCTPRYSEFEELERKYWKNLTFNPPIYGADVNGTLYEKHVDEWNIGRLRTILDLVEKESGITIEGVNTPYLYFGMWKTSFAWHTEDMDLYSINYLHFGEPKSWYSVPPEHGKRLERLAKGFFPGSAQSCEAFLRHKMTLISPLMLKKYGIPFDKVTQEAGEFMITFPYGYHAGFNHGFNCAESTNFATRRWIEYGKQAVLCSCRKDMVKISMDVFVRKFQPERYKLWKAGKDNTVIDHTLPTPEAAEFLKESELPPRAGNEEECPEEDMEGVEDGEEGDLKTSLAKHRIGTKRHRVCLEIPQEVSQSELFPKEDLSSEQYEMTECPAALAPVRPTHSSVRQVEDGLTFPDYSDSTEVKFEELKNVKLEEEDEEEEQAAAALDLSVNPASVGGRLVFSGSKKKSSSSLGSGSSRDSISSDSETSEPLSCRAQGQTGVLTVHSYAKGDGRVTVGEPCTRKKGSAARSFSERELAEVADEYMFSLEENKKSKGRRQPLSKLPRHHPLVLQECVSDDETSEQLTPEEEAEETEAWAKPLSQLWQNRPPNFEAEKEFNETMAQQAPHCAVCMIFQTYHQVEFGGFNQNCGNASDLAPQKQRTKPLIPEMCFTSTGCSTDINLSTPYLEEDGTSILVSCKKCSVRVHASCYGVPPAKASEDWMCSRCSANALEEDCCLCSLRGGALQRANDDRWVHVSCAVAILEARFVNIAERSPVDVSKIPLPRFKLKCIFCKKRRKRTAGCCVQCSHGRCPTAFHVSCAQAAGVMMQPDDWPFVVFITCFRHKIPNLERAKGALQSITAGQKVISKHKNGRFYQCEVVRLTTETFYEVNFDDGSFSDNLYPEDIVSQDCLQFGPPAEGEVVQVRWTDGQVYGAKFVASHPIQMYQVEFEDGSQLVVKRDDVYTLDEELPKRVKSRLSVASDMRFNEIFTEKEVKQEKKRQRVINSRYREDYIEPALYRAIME
On the % scale 0 is the no-effect control and ±100 the full control effect; potency means the concentration at half of the fitted maximal effect; tags describe the fitted curve by direction and shape.

SMILES	Potency	activity change, negative = inhibition
COc1cccc(C(=O)NC(=S)Nc2cccnc2)c1	inconclusive: 39.8 µM [inhibitor, single point]	–
Cc1cc(C)cc(OCC(=O)N(Cc2ccc(N(C)C)cc2)C2CCS(=O)(=O)C2)c1 (centres undefined)	active: 63.1 µM	–
COc1ccc(NC(=O)c2c(NCc3cccs3)sc3c2CCCC3)c(OC)c1	inconclusive: 100 µM [inhibitor, partial curve, poor fit]	–
Cc1ccccc1NC(=S)c1ccc2ccccc2n1	–	inactive: -13.7%
CCOC(=O)c1c(C)[nH]c(C)c1C(=O)COC(=O)/C=C/c1ccc(Cl)cc1	inconclusive: 20 µM [inhibitor, full curve, poor fit]	–
CCOC(=O)c1c(C)c(-c2ccccc2)n(CC(=O)Nc2ccc(OCC)cc2)c1C	–	inactive: -7.27%
COc1ccc(-c2cn3c(n2)sc2cc(C(=O)Nc4cccc(SC)c4)ccc23)cc1	inconclusive: 44.7 µM [inhibitor, full curve, poor fit]	–
Nc1n[nH]c(N)c1N=Nc1ccc(Cl)cc1	active: 35.5 µM	–
COCCn1c(C)cc(C(=O)COC(=O)c2c(C)nn(Cc3ccccc3)c2C)c1C	inconclusive: 56.2 µM [inhibitor, partial curve]	–
Cc1ccc(CSC2=Nc3ccccc3C3=NC(CC(=O)NCc4cccs4)C(=O)N23)c(C)c1 (centres undefined)	inconclusive: 56.2 µM [inhibitor, partial curve]	–
CCc1ccc2nc(NC(=O)c3ccc4c(=O)[nH]c(CN5CCOCC5)nc4c3)sc2c1	inconclusive: 3.98 µM [inhibitor, full curve]	–
Cc1ccc(N=Nc2ccc(O)c(/C=N\NC(=O)c3ccc(N)cc3)c2)cc1C	inconclusive: 100 µM [inhibitor, partial curve, poor fit]	–
OCCN(C=NC1=NN(c2cccc(C(F)(F)F)c2)CC1)CCO	inconclusive: 15.8 µM [inhibitor, full curve, poor fit]	–
Cc1cc(N2CCN(C3CCCCC3)CC2)nc2cccc(O)c12	inconclusive: 70.8 µM [inhibitor, partial curve, poor fit]	–
CC(=O)OCCCNc1cc(SCc2ccco2)c2nonc2c1[N+](=O)[O-]	active: 50.1 µM	–
Cc1ccc(-c2ccc(=O)n(CC(=O)NCCc3ccc(Cl)cc3)n2)cc1	active: 89.1 µM	–
O=S(=O)(NCCC1=CCCCC1)c1cccc(S(=O)(=O)N2CCOCC2)c1	inconclusive: 3.16 µM [inhibitor, single point]	–
Nc1nonc1-n1nnc(C(=O)N/N=C/c2ccoc2)c1-c1ccccc1	–	inactive: 2.11%
Cc1ccc(NC(=O)c2cc(N3C(=O)C=CC3=O)ccc2N2CCOCC2)cc1	active: 11.2 µM	–
CCOc1ccccc1-c1cc(-c2n[nH]c(=S)n2CC)c2ccccc2n1	active: 44.7 µM	–
COc1cccc(-c2nn[nH]n2)c1O	inconclusive: 0.631 µM [inhibitor, full curve, poor fit]	–
N#Cc1ccccc1OCCOCCNC1CCCC1	inconclusive: 39.8 µM [inhibitor, single point]	–
O=C(/C=C/c1cccc([N+](=O)[O-])c1)c1ccc([N+](=O)[O-])o1	–	inactive: -22.5%

SMILES	Potency	activity change, negative = inhibition
CCCS(=O)(=O)n1nc(-c2ccccc2)cc1N	–	inactive: -22.1%
CC1(C)C2CCC(C2)C1(C)NC(=O)CNCC1CCCCC1 (centres undefined)	inconclusive: 35.5 µM [inhibitor, single point]	–
Cc1ccccc1NC(=O)CSc1nc(-c2cccs2)nc2cc(=O)[nH]n12	inconclusive: 89.1 µM [inhibitor, partial curve]	–
COc1cccc(NC(=S)N(Cc2ccc(Cl)cc2)Cc2ccc(C(=O)O)cc2)c1	–	inactive: -8.59%
Cc1cc(NC(=O)CCN2CCC(C)CC2)ccc1Br	–	inactive: -7.31%
COc1cccc(-n2c(SCC(=O)Nc3ccc4c(c3)OCO4)nc3c([nH]c4ccccc43)c2=O)c1	–	inactive: -19.4%
CC(=O)NC(c1ccc(Cl)cc1)c1c(O)ccc2ccc(O)cc12 (centres undefined)	–	inactive: -34.4%
CN(C)Cc1cc(C(F)(F)F)ccc1C(O)(c1ccccc1)c1ccccc1	–	inactive: -27.8%
Cc1ccc(C(=O)c2c(NC(=O)c3ccccc3)sc(C)c2C)cc1	inconclusive: 25.1 µM [inhibitor, partial curve]	–
O=C(Nc1ccc(NC(=O)c2cccs2)cc1)c1ccc(Br)o1	inconclusive: 56.2 µM [inhibitor, partial curve]	–
COc1ccc(-c2cc(OC(=O)c3cccc(Cl)c3)c3c(C)oc(C)c3c(=O)c2)cc1OC	inconclusive: 56.2 µM [inhibitor, partial curve]	–
O=c1[nH][nH]c2c(N=Cc3ccccc3O)ccc(F)c12	inconclusive: 56.2 µM [inhibitor, single point]	–
Cc1cccc(N2CCN(Cc3nc(-c4cccc(Oc5ccccc5)c4)oc3C)CC2)n1	active: 44.7 µM	–
COc1ccc(CCOC(=O)c2ccc(N)c([N+](=O)[O-])c2)cc1	inconclusive: 44.7 µM [inhibitor, partial curve]	–
COc1ccc(NC(=O)c2cc(S(=O)(=O)N3CCCC(C)C3)cn2C)c(OC)c1 (centres undefined)	–	inactive: -34.5%
CN(C)c1ccc(Nc2ccc([N+](=O)[O-])cn2)cc1	inconclusive: 31.6 µM [inhibitor, partial curve]	–
CSc1nnc2c3cc(F)ccc3n(C)c2n1	–	inactive: -12%
COc1ccccc1OCC(=O)Nc1cc(S(=O)(=O)N2CCCCC2)ccc1N1CCCCC1	inconclusive: 39.8 µM [inhibitor, single point]	–
O=C(Nc1ccccc1C(F)(F)F)C1CCN(S(=O)(=O)c2ccccc2)CC1	–	inactive: -6.57%
O=C(CSc1nc2ncccc2o1)Nc1ccc(Cl)cc1F	–	inactive: -13.7%
CC(=O)N1C(=O)/C(=C2\SC(=S)N(NS(=O)(=O)c3ccc(C)cc3)C2=O)c2ccccc21	inconclusive: 7.08 µM [inhibitor, partial curve]	–
CCOCCCNC(=O)C1CCN(Cc2ccc(OCc3ccccc3)c(OC)c2)CC1	inconclusive: 89.1 µM [inhibitor, single point]	–
Cc1nn(Cc2ccccc2)c2sc(C(=O)N3CCN(Cc4ccc5c(c4)OCO5)CC3)cc12	inconclusive: 79.4 µM [inhibitor, partial curve]	–

SMILES	Potency	activity change, negative = inhibition
CCOC(=O)c1cc(-c2ccc(F)cc2)n(CCC(=O)Nc2cc(OC)cc(OC)c2)c1C	inconclusive: 25.1 µM [inhibitor, full curve, poor fit]	–
COC(=O)c1c(C(=O)OC)c2cccc3cc(-c4ccccc4)c4ccc1c4n32	active: 8.91 µM	–
COc1cc(/C=C2\CCCc3c2nc2ccccc2c3C(=O)O)cc([N+](=O)[O-])c1O	inconclusive: 50.1 µM [inhibitor, partial curve]	–
N#C/C(=C\c1ccc(-c2ccc(C(=O)O)cc2)o1)C(=O)Nc1ccc(F)cc1	inconclusive: 50.1 µM [inhibitor, partial curve]	–
CCCN(CC(=O)Nc1ccc(F)c(F)c1F)CC(=O)Nc1c(C)n(C)n(-c2ccccc2)c1=O	–	inactive: -5.26%
O=C(CCCN1C(=O)c2cccc3cccc(c23)C1=O)N1CCN(Cc2ccc3c(c2)OCO3)CC1	inconclusive: 56.2 µM [inhibitor, partial curve]	–
CCOC(=O)C1CCCCN1Cc1cccc(OC)c1OC (centres undefined)	active: 5.62 µM	–
COCC(=O)n1nc(-c2ccccc2)nc1NCc1ccc(N(C)C)cc1	active: 35.5 µM	–
CN1C(=O)/C(=C/c2ccccc2OCc2ccc(C(=O)O)cc2)NC1=S	inconclusive: 56.2 µM [inhibitor, partial curve, poor fit]	–
O=C(c1cccc(Cl)c1)c1nn(-c2ccccc2)c(=O)cc1C(F)(F)F	–	inactive: -11.6%
Cc1ccc(-c2nc3cccc(C)n3c2Nc2ccc3c(c2)OCO3)o1	active: 39.8 µM	–
CCOc1ccccc1C(=O)N1CCc2cc(OC)c(OC)cc2C1COc1ccc(OC)cc1 (centres undefined)	inconclusive: 50.1 µM [inhibitor, partial curve]	–
COc1cc(CC(=O)NC(c2ccccc2)c2ccccc2)cc(OC)c1OC	inconclusive: 25.1 µM [inhibitor, single point]	–
CCOC(=O)c1c(C)[nH]c(C)c1C(=O)COC(=O)/C=C/c1cccc(Cl)c1	inconclusive: 50.1 µM [inhibitor, partial curve]	–
CCCCC(O)(c1ccc(CC)cc1)C(CN1CCOCC1)c1ccccc1 (centres undefined)	–	inactive: 3.34%
COc1cccc(N2CC(C(=O)NNC(=O)c3ccc(Cl)cc3)CC2=O)c1 (centres undefined)	inconclusive: 39.8 µM [inhibitor, single point]	–
CC(=O)OCCN(C)c1cc(SC(C)C)c2nonc2c1[N+](=O)[O-]	inconclusive: 89.1 µM [inhibitor, single point]	–
O=c1c2c(nc3n1CCCCC3)-c1ccccc1CC21CCCC1	inconclusive: 35.5 µM [inhibitor, single point]	–
S=C(NCCCc1cnc[nH]1)NCCCN(Cc1ccc(Cl)c(Cl)c1)c1ccccn1	active: 44.7 µM	–
O=C(Nc1ccc(Cl)c(S(=O)(=O)N2CCCC2)c1)c1cc(=O)[nH]c2ccccc12	inconclusive: 28.2 µM [inhibitor, partial curve]	–
COc1ccc(-c2nc3cnccn3c2NC2CCCCC2)cc1-c1cccc(Cl)c1	inconclusive: 56.2 µM [inhibitor, partial curve]	–
Cc1cccc(Oc2ccc(NC(=O)C3CC=CCC3C(=O)O)cc2)c1 (centres undefined)	inconclusive: 70.8 µM [inhibitor, single point]	–
O=C(N/C(=C/c1ccco1)C(=O)N1CCc2ccccc21)c1ccco1	inconclusive: 56.2 µM [inhibitor, partial curve]	–
